In all, about 39,000 compounds went through this assay and about 220 (0.56%) showed activity. The list shows a part of the results.

From the supplement of paper PMC9446081 come the findings set out here.
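Further: static incubation at 37 °C against the wild-type strain, values averaged over two biological replicates.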

This experiment concerns Escherichia coli K-12 BW25113. The experiment is described as follows: relative growth (OD600 normalised to plate interquartile mean) (fraction); higher = less growth inhibition, active = 0.2 or less. The following applies: 50 µM; LB; incubation time: overnight (16-24 h).
With `C[C@@H]1CN([C@@H](C)CO)C(=O)c2cccc(NC(=O)c3nc4ccccc4s3)c2O[C@H]1CN(C)S(=O)(=O)c1cn(C)cn1`, the relative growth was inactive: 1.05.

Regarding `COc1ccc(CN(C)C[C@@H]2Oc3c(NS(=O)(=O)c4c(C)noc4C)cccc3C(=O)N([C@H](C)CO)C[C@@H]2C)cc1`, the relative growth is inactive: 0.991.

Regarding `CN(C)CCCNC(=O)C[C@H]1CC[C@@H]2[C@H](COc3ccc(NS(C)(=O)=O)cc3C(=O)N2C)O1`, the relative growth was inactive: 1.

Take `COCC#Cc1ccc2c(c1)O[C@H](CN(C)C(=O)C1CCOCC1)[C@@H](C)CN([C@H](C)CO)S2(=O)=O`: the relative growth was inactive: 0.957.

Take `CCCCOC(=O)CSc1n[nH]c(=O)[nH]c1=O`: the relative growth is inactive: 1.02.

With `C[C@@H]1CN([C@H](C)CO)C(=O)c2cc(NC(=O)Cc3ccccc3)ccc2O[C@@H](C)CCCCO[C@@H]1CN(C)S(=O)(=O)c1ccc(F)cc1`, the relative growth was inactive: 1.04.

On to `Cc1noc(C)c1NC(=O)Nc1ccc2c(c1)C(=O)N([C@H](C)CO)C[C@H](C)[C@H](CN(C)Cc1ccc(C(F)(F)F)cc1)OCCCC[C@H](C)O2`, for which the relative growth is inactive: 0.994.

With `Cc1cc(=O)nc(SCC(N)=O)[nH]1`, the relative growth was inactive: 1.01.

With `CN1CCN(C(=O)C[C@H]2CC[C@@H]3[C@H](COC[C@@H](O)CN3C(=O)C3CCCC3)O2)CC1`, the relative growth was inactive: 1.01.

As to `CC(=O)N[C@@H]1[C@@H](Oc2ccc(C(C)=O)cc2)O[C@H](CO)[C@H](O)[C@@H]1O`, the relative growth was inactive: 1.02.

`COc1ccc(S(=O)(=O)N(C)C[C@@H]2Oc3ccc(NS(C)(=O)=O)cc3C(=O)N([C@H](C)CO)C[C@@H]2C)cc1`: the relative growth is inactive: 0.978.

On to `COC(=O)[C@H](Cc1ccccc1)N1CC2=C[C@@H]([C@@H](O)CCn3cc(-c4ccc(C(=O)NO)s4)nn3)n3c(=O)n(C)c(=O)n3[C@@H]2[C@@H](C2CC2)O1`, for which the relative growth was inactive: 0.992.

For the compound `C[C@H]1CN([C@@H](C)CO)S(=O)(=O)c2ccc(C#CC3(O)CCCC3)cc2O[C@H]1CN(C)C(=O)Nc1cccc(F)c1`, the relative growth is inactive: 1.

As to `C[C@@H]1CN([C@H](C)CO)S(=O)(=O)c2ccc(C#Cc3ccccc3)cc2O[C@@H]1CN(C)C(=O)CN(C)C`, the relative growth is inactive: 0.947.

Take `Cc1cc(C)c2nc(-c3ccccn3)cc(C(=O)Nc3ccc(S(=O)(=O)Nc4onc(C)c4C)cc3)c2c1`: the relative growth is inactive: 0.929.

For the compound `C[C@@H]1CN([C@@H](C)CO)C(=O)Cc2cc(N(C)C)ccc2O[C@H]1CN(C)C(=O)Nc1ccc2c(c1)OCO2`, the relative growth is inactive: 1.01.

For the compound `C[C@@H]1CN([C@H](C)CO)C(=O)c2cc(NC(=O)NC3CCCCC3)ccc2O[C@@H](C)CCCCO[C@H]1CN(C)Cc1ccc2c(c1)OCO2`, the relative growth is inactive: 0.967.

As to `CCCNC(=O)Nc1ccc2c(c1)OC[C@@H](C)N(Cc1ccc(-c3ccccn3)cc1)C[C@H](C)[C@@H](OC)CN(C)C2=O`, the relative growth is inactive: 0.985.

Consider `COc1ccc(CN(C)C[C@@H]2OCCCC[C@H](C)Oc3ccc(NC(=O)Cc4ccccc4)cc3C(=O)N([C@H](C)CO)C[C@H]2C)cc1`, for which the relative growth is inactive: 0.976.

In the case of `C[C@H](CO)N1C[C@H](C)[C@@H](CN(C)C(=O)c2ccncc2)Oc2cc(C#Cc3ccncc3)ccc2S1(=O)=O`, the relative growth was inactive: 0.956.

Consider `Cc1ccc(S(=O)(=O)N(C)C[C@@H]2OCCCC[C@@H](C)Oc3ccc(NC(=O)Nc4ccccc4)cc3C(=O)N([C@H](C)CO)C[C@@H]2C)cc1`, for which the relative growth is inactive: 0.988.

Regarding `C[C@H]1CN([C@@H](C)CO)C(=O)c2cc(NC(=O)Nc3ccccc3)ccc2O[C@H]1CN(C)CC1CCCCC1`, the relative growth is inactive: 0.986.

Consider `COc1ccc(NC(=O)Nc2ccc3c(c2)C(=O)N([C@@H](C)CO)C[C@H](C)[C@H](CN(C)C(=O)Nc2ccc(C(F)(F)F)cc2)O3)cc1`, for which the relative growth was inactive: 1.02.

As to `C[C@H]1CN([C@@H](C)CO)C(=O)c2cc(NC(=O)CCN3CCOCC3)ccc2O[C@@H]1CN(C)C(=O)Nc1ccc2c(c1)OCO2`, the relative growth is inactive: 1.02.

Regarding `CCN(CC)CCCn1c(/C=C/c2ccc(O)c(OC)c2)cc(/C=C/c2ccc(O)c(OC)c2)nc1=S`, the relative growth was inactive: 1.01.

Take `COc1cccc(NC(=O)N[C@H]2C=C[C@H](CC(=O)N3CCOCC3)O[C@@H]2CO)c1`: the relative growth was inactive: 0.917.

As to `COc1ccc(CN(C)C[C@@H]2OCCCC[C@H](C)Oc3ccc(NS(=O)(=O)c4ccccc4)cc3C(=O)N([C@@H](C)CO)C[C@H]2C)cc1`, the relative growth is inactive: 1.03.

For the compound `C[C@H](CO)N1C[C@H](C)[C@@H](CN(C)CC2CC2)OCCCC[C@H](C)Oc2ccc(NC(=O)CCCCCC(=O)Nc3ccccc3N)cc2C1=O`, the relative growth was inactive: 0.979.

As to `C[C@@H]1CN([C@H](C)CO)C(=O)Cc2cc(NC(=O)C3CC3)ccc2O[C@@H]1CN(C)S(=O)(=O)c1cccs1`, the relative growth was inactive: 0.995.

For `Cn1c(=O)c2c(ncn2CCO)n(C)c1=O`, the relative growth was inactive: 0.973.

Take `CC(C)NC(=O)Nc1ccc2c(c1)CC(=O)N([C@@H](C)CO)C[C@H](C)[C@@H](CN(C)S(=O)(=O)c1ccc(Cl)cc1)O2`: the relative growth is inactive: 1.01.

For `CC(C)NC(=O)N(C)C[C@H]1Oc2ccc(NC(=O)CCCN(C)C)cc2C(=O)N([C@H](C)CO)C[C@H]1C`, the relative growth is inactive: 0.999.

On to `CN1CCN(CCO)C(=O)C12CCN(S(=O)(=O)C1CC1)CC2`, for which the relative growth is inactive: 1.

As to `CN1C(=O)c2cc(NS(=O)(=O)c3cccc(F)c3)ccc2OC[C@@H]2O[C@H](CC(=O)NCCN3CCCCC3)CC[C@H]21`, the relative growth is inactive: 0.982.

For the compound `Cc1ccc(S(=O)(=O)Nc2ccc3c(c2)CC(=O)N([C@@H](C)CO)C[C@@H](C)[C@@H](CN(C)Cc2ccncc2)O3)cc1`, the relative growth is inactive: 1.

As for `CCCCCCCC/C=C\CCCCCCCC(N)=O`, the relative growth was inactive: 0.861.

In the case of `CNC(=O)C[C@@H]1CC[C@H]2[C@@H](COC[C@@H](O)CN2C(=O)Nc2ccc3c(c2)OCO3)O1`, the relative growth is inactive: 0.996.

Consider `C[C@@H]1CN([C@@H](C)CO)C(=O)c2cc(NS(=O)(=O)c3ccc(Cl)cc3)ccc2O[C@@H](C)CCCCO[C@@H]1CN(C)Cc1ccc(C(F)(F)F)cc1`, for which the relative growth was inactive: 1.03.

Regarding `C[C@@H]1CN([C@@H](C)CO)C(=O)c2cc(-c3cccnc3)cnc2O[C@H]1CN(C)Cc1ccc(Oc2ccccc2)cc1`, the relative growth is inactive: 1.01.
